Results taken from the supplement of paper PMC11543636.
Each value is the number of isolates with that result; steps that no isolate showed are left empty. MIC of clinical M. tuberculosis isolates from a national drug-resistance survey, broth microdilution on MYCOTB, UKMYC5 or UKMYC6 plates (ranges differ by plate), read after 10-21 days; higher = less susceptible. Call: the paper's susceptible [S] / resistant [R] by the drug's critical concentration (it differs by plate for some drugs); calls for ofloxacin and levofloxacin are not shown. MYCOTB plates carry ofloxacin; the paper halves those MICs to stand for levofloxacin, and they are doubled back here. The top step of a plate is printed with and without '>' in the source and is marked '>=' when plain; the plain lowest step of rifampicin and kanamycin on MYCOTB is marked '<='. Isolates that the source marks as part of the WHO data set are not listed here.

What was measured:
Assay in all cases: Isolates counted by MIC; Broth microdilution on commercial drug-susceptibility plates, read by two operators.
[1] = system: Mycobacterium tuberculosis lineage 1 on plate MYCOTB (31 isolates)
[2] = system: Mycobacterium tuberculosis lineage 2 on plate MYCOTB (3815 isolates)
[3] = system: Mycobacterium tuberculosis lineage 2 on plate UKMYC5 (530 isolates)
[4] = system: Mycobacterium tuberculosis lineage 2 on plate UKMYC6 (1561 isolates)
[5] = system: Mycobacterium tuberculosis lineage 3 on plate UKMYC6 (383 isolates)
[6] = system: Mycobacterium tuberculosis lineage 4 on plate MYCOTB (1613 isolates)
[7] = system: Mycobacterium tuberculosis lineage 4 on plate UKMYC5 (155 isolates)
[8] = system: Mycobacterium tuberculosis lineage 4 on plate UKMYC6 (615 isolates)
[9] = system: Mycobacterium tuberculosis lineage 2 on plate UKMYC6 (1562 isolates)
[10] = system: Mycobacterium tuberculosis lineage 2 on plate UKMYC5 (529 isolates)
[11] = system: Mycobacterium tuberculosis lineage 2 on plate UKMYC6 (1560 isolates)
[12] = system: Mycobacterium tuberculosis lineage 3 on plate UKMYC6 (380 isolates)
[13] = system: Mycobacterium tuberculosis lineage 4 on plate UKMYC6 (614 isolates)

SMILES: NC[C@H]1O[C@H](O[C@H]2[C@H](O)[C@@H](O[C@H]3O[C@H](CO)[C@@H](O)[C@H](N)[C@H]3O)[C@H](N)C[C@@H]2N)[C@H](O)[C@@H](O)[C@@H]1O [kanamycin]
- isolate count ([1]; MIC: 1.2 mg/L): 11 [S]
- isolate count ([1]; MIC: 2.5 mg/L): 17 [S]
- isolate count ([1]; MIC: 20 mg/L): 2 [R]
- isolate count ([1]; MIC: ≥40 mg/L): 1 [R]
- isolate count ([2]; MIC: 1.2 mg/L): 1950 [S]
- isolate count ([2]; MIC: 2 mg/L): 1 [S]
- isolate count ([2]; MIC: 2.5 mg/L): 1690 [S]
- isolate count ([2]; MIC: 5 mg/L): 62 [R]
- isolate count ([2]; MIC: 10 mg/L): 13 [R]
- isolate count ([2]; MIC: 20 mg/L): 2 [R]
- isolate count ([2]; MIC: ≤0.6 mg/L): 68 [S]
- isolate count ([2]; MIC: ≥40 mg/L): 27 [R]
- isolate count ([3]; MIC: 2 mg/L): 409 [S]
- isolate count ([3]; MIC: 4 mg/L): 43 [S]
- isolate count ([3]; MIC: 8 mg/L): 1 [R]
- isolate count ([3]; MIC: >16 mg/L): 6 [R]
- isolate count ([3]; MIC: ≤1 mg/L): 61 [S]
- isolate count ([3]; MIC: ≥16 mg/L): 10 [R]
- isolate count ([4]; MIC: 2 mg/L): 963 [S]
- isolate count ([4]; MIC: 4 mg/L): 23 [S]
- isolate count ([4]; MIC: 8 mg/L): 9 [R]
- isolate count ([4]; MIC: >16 mg/L): 10 [R]
- isolate count ([4]; MIC: ≤1 mg/L): 554 [S]
- isolate count ([4]; MIC: ≥16 mg/L): 2 [R]
- isolate count ([5]; MIC: 2 mg/L): 334 [S]
- isolate count ([5]; MIC: 4 mg/L): 20 [S]
- isolate count ([5]; MIC: ≤1 mg/L): 27 [S]
- isolate count ([5]; MIC: ≥16 mg/L): 2 [R]
- isolate count ([6]; MIC: 1.2 mg/L): 200 [S]
- isolate count ([6]; MIC: 2.5 mg/L): 1010 [S]
- isolate count ([6]; MIC: 5 mg/L): 371 [R]
- isolate count ([6]; MIC: 10 mg/L): 3 [R]
- isolate count ([6]; MIC: 20 mg/L): 1 [R]
- isolate count ([6]; MIC: >40 mg/L): 2 [R]
- isolate count ([6]; MIC: ≤0.6 mg/L): 17 [S]
- isolate count ([6]; MIC: ≥40 mg/L): 7 [R]
- isolate count ([7]; MIC: 2 mg/L): 52 [S]
- isolate count ([7]; MIC: 4 mg/L): 83 [S]
- isolate count ([7]; MIC: 8 mg/L): 3 [R]
- isolate count ([7]; MIC: ≤1 mg/L): 17 [S]
- isolate count ([8]; MIC: 2 mg/L): 386 [S]
- isolate count ([8]; MIC: 4 mg/L): 190 [S]
- isolate count ([8]; MIC: 8 mg/L): 4 [R]
- isolate count ([8]; MIC: >16 mg/L): 1 [R]
- isolate count ([8]; MIC: ≤1 mg/L): 33 [S]
- isolate count ([8]; MIC: ≥16 mg/L): 1 [R]

SMILES: C[C@H]1COc2c(N3CCN(C)CC3)c(F)cc3c(=O)c(C(=O)O)cn1c23 [levofloxacin]
- isolate count ([3]; MIC: 0.25 mg/L): 125
- isolate count ([3]; MIC: 0.5 mg/L): 323
- isolate count ([3]; MIC: 1 mg/L): 16
- isolate count ([3]; MIC: 2 mg/L): 16
- isolate count ([3]; MIC: 4 mg/L): 26
- isolate count ([3]; MIC: >8 mg/L): 2
- isolate count ([3]; MIC: ≤0.12 mg/L): 4
- isolate count ([3]; MIC: ≥8 mg/L): 18
- isolate count ([9]; MIC: 0.25 mg/L): 559
- isolate count ([9]; MIC: 0.5 mg/L): 877
- isolate count ([9]; MIC: 1 mg/L): 17
- isolate count ([9]; MIC: 2 mg/L): 23
- isolate count ([9]; MIC: 4 mg/L): 30
- isolate count ([9]; MIC: ≤0.12 mg/L): 19
- isolate count ([9]; MIC: ≥8 mg/L): 37
- isolate count ([5]; MIC: 0.25 mg/L): 158
- isolate count ([5]; MIC: 0.5 mg/L): 214
- isolate count ([5]; MIC: 1 mg/L): 6
- isolate count ([5]; MIC: ≤0.12 mg/L): 4
- isolate count ([5]; MIC: ≥8 mg/L): 1
- isolate count ([7]; MIC: 0.25 mg/L): 31
- isolate count ([7]; MIC: 0.5 mg/L): 104
- isolate count ([7]; MIC: 1 mg/L): 13
- isolate count ([7]; MIC: 2 mg/L): 1
- isolate count ([7]; MIC: 4 mg/L): 2
- isolate count ([7]; MIC: ≤0.12 mg/L): 1
- isolate count ([7]; MIC: ≥8 mg/L): 3
- isolate count ([8]; MIC: 0.25 mg/L): 167
- isolate count ([8]; MIC: 0.5 mg/L): 396
- isolate count ([8]; MIC: 1 mg/L): 14
- isolate count ([8]; MIC: 2 mg/L): 3
- isolate count ([8]; MIC: 4 mg/L): 9
- isolate count ([8]; MIC: >8 mg/L): 1
- isolate count ([8]; MIC: ≤0.12 mg/L): 12
- isolate count ([8]; MIC: ≥8 mg/L): 13

SMILES: CC(=O)NC[C@H]1CN(c2ccc(N3CCOCC3)c(F)c2)C(=O)O1 [linezolid]
- isolate count ([10]; MIC: 0.06 mg/L): 1 [S]
- isolate count ([10]; MIC: 0.12 mg/L): 7 [S]
- isolate count ([10]; MIC: 0.25 mg/L): 77 [S]
- isolate count ([10]; MIC: 0.5 mg/L): 414 [S]
- isolate count ([10]; MIC: 1 mg/L): 24 [S]
- isolate count ([10]; MIC: 2 mg/L): 3 [R]
- isolate count ([10]; MIC: ≤0.03 mg/L): 3 [S]
- isolate count ([11]; MIC: 0.12 mg/L): 31 [S]
- isolate count ([11]; MIC: 0.25 mg/L): 432 [S]
- isolate count ([11]; MIC: 0.5 mg/L): 1040 [S]
- isolate count ([11]; MIC: 1 mg/L): 33 [S]
- isolate count ([11]; MIC: 2 mg/L): 1 [R]
- isolate count ([11]; MIC: >4 mg/L): 7 [R]
- isolate count ([11]; MIC: ≤0.06 mg/L): 6 [S]
- isolate count ([11]; MIC: ≥4 mg/L): 5 [R]
- isolate count ([12]; MIC: 0.12 mg/L): 1 [S]
- isolate count ([12]; MIC: 0.25 mg/L): 52 [S]
- isolate count ([12]; MIC: 0.5 mg/L): 302 [S]
- isolate count ([12]; MIC: 1 mg/L): 24 [S]
- isolate count ([12]; MIC: ≤0.06 mg/L): 1 [S]
- isolate count ([7]; MIC: 0.06 mg/L): 2 [S]
- isolate count ([7]; MIC: 0.12 mg/L): 4 [S]
- isolate count ([7]; MIC: 0.25 mg/L): 35 [S]
- isolate count ([7]; MIC: 0.5 mg/L): 100 [S]
- isolate count ([7]; MIC: 1 mg/L): 13 [S]
- isolate count ([7]; MIC: ≤0.03 mg/L): 1 [S]
- isolate count ([13]; MIC: 0.12 mg/L): 12 [S]
- isolate count ([13]; MIC: 0.25 mg/L): 126 [S]
- isolate count ([13]; MIC: 0.5 mg/L): 441 [S]
- isolate count ([13]; MIC: 1 mg/L): 28 [S]
- isolate count ([13]; MIC: 2 mg/L): 1 [R]
- isolate count ([13]; MIC: >4 mg/L): 3 [R]
- isolate count ([13]; MIC: ≤0.06 mg/L): 3 [S]
